Laboratory results published in PubChem BioAssay AID1345083 (National Center for Advancing Translational Sciences (NCATS), 2018).
Screen size: about 94,000 compounds; about 6,200 (6.6%) were called active. The shares of active, inactive and inconclusive entries below differ from those in the screen. Calls follow the shape of the dose curve; as a rule, active = well fitted inhibition curve with a large enough effect; inconclusive = small, poorly fitted or top-dose-only effect; inactive = flat fitted curve, though single readings scatter. Potencies beside an inconclusive call are fits to weak or partial responses and may not hold up.

Test: Cytotoxic Profiling in HEK 293 Cell Line of Diverse Libraries Using Quantitative High-Throughput Screening; also: nearly all actives have a fitted effect of over 60% in size
Conditions: HEK 293 viability, ATP luminescence (CellTiter-Glo), 48-72 h; activity change, negative = cytotoxicity: at 115 µM (top of the series) unless noted; series mostly up to 115 µM
How it was run: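 HEK 293 seeded at 250 cells/well receive compound via pintool. After 48 or 72 hr at 37 degree Celsius, 5% CO2 and 95% humidity, CellTiter-Glo is dispensed and luminescence read following 10 min at room temperature.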
% is scaled to controls: 0 for no effect and ±100 for the full control effect; potency is read from the fitted curve at half-maximal effect; tags tell the direction and shape of the fitted curve.

Compound	outcome	Potency	activity change, negative = cytotoxicity
CNC(=O)N1CCC(C2CCN(C(=O)c3cc(OC)cc(OC)c3)C2)CC1 (stereo not given)	inactive	–	–
COC(=O)N(C)Cc1cccc(N2CCN(Cc3c(Cl)ccc(Cl)c3Cl)CC2)c1F	–	inconclusive: 35.5 µM [inhibitor, partial curve, poor fit]	–
CCOc1ccc(C(=O)N2CCC3(CC2)N=C(c2ccc(Cl)cc2)NO3)cc1	–	inconclusive: 39.8 µM [inhibitor, partial curve, poor fit]	–
Cn1cccc1C(=O)N1CCC(N2C[C@H](O)C[C@H]2C(=O)NC2CCCCC2)CC1	–	–	inactive: -12.2%
O=C(NCc1ccc(F)cc1)C1CCN(c2nccc(Nc3ccccc3Cl)n2)CC1	–	inconclusive: 50.1 µM [inhibitor, partial curve, poor fit]	–
O=C1[C@@H]2C[C@@H](CN2C2CCOCC2)Oc2ccccc2N1Cc1ccc(OC(F)(F)F)cc1	–	inconclusive: 50.1 µM [inhibitor, partial curve, poor fit]	–
COc1ccc(C(C)NC(=O)C2CCN(C(=O)c3ncn4c3COC(c3ccccc3)C4)CC2)cc1 (stereo not given)	–	–	inactive: -6.2%
O=C1Cc2c(-c3ccccc3)n[nH]c2CN1CCc1ccncc1	–	–	inactive: 2.8% [at 172 µM]
O=C(Cc1c[nH]c2ncc(-c3ccccc3)cc12)Nc1ccc(N2CCOCC2)cc1	–	active: 63.1 µM	–
COc1ccc(C(=O)Nc2cc(C3CCCC3)nn2C)cc1	–	active: 100 µM	–
Cn1ncc2c(C(=O)NCc3cccc(Cl)c3)cc(-c3ccccc3F)nc21	–	inconclusive: 20 µM [inhibitor, full curve]	–
Cc1ccccc1[S+](=O)([O-])N1CC2(CN(CCOc3ccccc3)C(=O)O2)C1	–	inconclusive: 112 µM [inhibitor, partial curve]	–
c1ncc(-c2ccc(-c3noc([C@@H]4CCCN4Cc4ccc5c(c4)OCO5)n3)cn2)cn1	–	inconclusive: 100 µM [inhibitor, partial curve, poor fit]	–
O=C(NCc1cccnc1)c1ccc(N2CCC(NCCCn3ncc4ccccc43)CC2)cc1	–	inconclusive: 20 µM [inhibitor, full curve, poor fit]	–
COc1ccc(C(=O)N[C@H]2C[C@H]3C(=O)Nc4ccc(-c5cccs5)cc4C(=O)N3C2)cc1	–	inconclusive: 56.2 µM [inhibitor, partial curve, poor fit]	–
O=C(Cn1nc2c(cc1=O)CCCCC2)Nc1nc2ccccc2s1	–	inconclusive: 89.1 µM [inhibitor, single point]	–
Cc1ccc([S+](=O)([O-])N2CCC3(CC2)CC(=O)N(c2ccccc2)c2ccccc2O3)cc1	–	active: 25.1 µM	–
Cc1nnc2ccc(N3CCN(C(=O)c4ccccc4Cl)CC3)nn12	–	–	inactive: -12.6%
O=C(NC1CCN(c2ccc3nnc(C4CC4)n3n2)C1)c1ccc(F)cc1 (stereo not given)	–	–	inactive: -0.81%
O=C(NCc1ccc(F)cc1F)c1cc2n(n1)CC(c1ccc(Cl)cc1)OC2 (stereo not given)	–	inconclusive: 50.1 µM [inhibitor, partial curve, poor fit]	–
O=C(NC[C@H]1Cn2c(-c3ccc(F)cc3)cnc2CO1)c1cnccn1	–	inconclusive: 126 µM [inhibitor, single point]	–
Cc1cc(C)n(-c2cccc(-c3nc(C4CCOC4)no3)c2)n1 (stereo not given)	–	inconclusive: 56.2 µM [inhibitor, partial curve, poor fit]	–

Compound	outcome	Potency	activity change, negative = cytotoxicity
O=C(NCCc1ccc(Cl)cc1)c1nc(-c2ccc(F)cc2)c2ccccn12	–	inconclusive: 100 µM [inhibitor, single point]	–
Cc1ccc(-c2nc(C3CC(=O)N(c4ccc(F)cc4)C3)no2)cc1C (stereo not given)	–	inconclusive: 89.1 µM [inhibitor, single point]	–
COc1ccc(-c2noc(CCCC(=O)N3CCC(c4nc(C5CCOCC5)no4)C3)n2)cc1OC (stereo not given)	–	inconclusive: 10 µM [inhibitor, full curve, poor fit]	–
COc1cccc(C(=O)N2CCC3(CC2)OCC(C(=O)NCC(C)C)N3C(=O)c2ccc(F)cc2)c1 (stereo not given)	–	–	inactive: 2.37%
O=C(c1ccc(F)cc1)N1CCc2nc(C3CC3)nc(-c3ccc(Cl)cc3)c2C1	–	inconclusive: 44.7 µM [inhibitor, partial curve, poor fit]	–
Clc1cc(NC2CCOCC2)n2nccc2n1	–	inconclusive: 126 µM [inhibitor, single point]	–
COC(=O)c1ccc2nc(CO[C@H]3CN(Cc4ccc(Cl)cc4)C[C@H]3F)[nH]c2c1	–	inconclusive: 56.2 µM [inhibitor, partial curve, poor fit]	–
CC(C)c1nc2c(c(-c3ccc(O)cc3)n1)CN([S+](=O)([O-])c1ccccc1)CC2	–	–	inactive: -0.733%
CN(Cc1ccc2nsnc2c1)Cc1nc(Cc2cccc(C(F)(F)F)c2)no1	–	inconclusive: 56.2 µM [inhibitor, partial curve, poor fit]	–
Cn1c(=O)n([C@H]2CCCN(C(=O)c3ccn[nH]3)C2)c2ncccc21	inactive	–	–
CC(=O)N1Cc2ccccc2CC2(CCN(C)CC2)C1	–	–	inactive: -5.64% [at 172 µM]
O=C(CC1CCCCN(Cc2ccccc2)C1=O)NCc1cccnc1 (stereo not given)	–	inconclusive: 100 µM [inhibitor, single point]	–
CC(C)(C)c1nc(C(=O)N2CCOCC2)n2ccncc12	inactive [at 172 µM]	–	–
COc1ccc(-c2cc(C(=O)N3CCN(c4ncccn4)CC3)c3cnn(C)c3n2)cc1	–	active: 39.8 µM	–
C[S+](=O)([O-])c1ccc(-c2nnc3ccc(C(=O)NCc4ccccn4)cn23)cc1	–	–	inactive: 4.84%
O=C(Nc1ccc(Cl)cc1)N1Cc2[nH]cnc2C[C@H]1c1nc(-c2ccccc2)no1	–	active: 79.4 µM	–
COc1cccc([S+](=O)([O-])N2CCC(C(=O)N3CCC(N4CCOCC4=O)CC3)CC2)c1	inactive	–	–
O=C(c1cncc(F)c1)N1CCOCC2(CN(Cc3ccccc3)C2)C1	–	inconclusive: 112 µM [inhibitor, single point]	–
Cn1nccc1C(=O)NCC1Cn2cccc2CN1Cc1ccccc1 (stereo not given)	–	active: 79.4 µM	–
O=C(Nc1ccc(Cl)cc1)Nc1ccc2n(c1=O)C[C@H]1C[C@@H]2CN(C(=O)c2ccc3ccccc3c2)C1	–	active: 28.2 µM	–
CN(CC(=O)N1CCc2nc3cc(-c4ccccc4)[nH]n3c(=O)c2C1)S(=O)(=O)c1cnc[nH]1	–	inconclusive: 44.7 µM [inhibitor, partial curve, poor fit]	–
Cn1c(=O)n([C@H]2CCCN(C(=O)CN3CCCCCC3)C2)c2ncccc21	–	–	inactive: -21.3%

Compound	outcome	Potency	activity change, negative = cytotoxicity
Cc1cccc(-c2cn[nH]c2C2CCN(C(=O)c3cc(=O)[nH]c(=O)[nH]3)CC2)c1	–	inconclusive: 50.1 µM [inhibitor, partial curve, poor fit]	–
CN(Cc1ccccc1)C(=O)[C@H]1O[C@H](CCN2CCN(Cc3ccccc3)CC2)CC[C@@H]1O	–	–	inactive: -27%
CCS(=O)(=O)N(C1CC1)C1CCOC2(CCN(C(=O)NCCc3ccccc3)CC2)C1 (stereo not given)	–	inconclusive: 89.1 µM [inhibitor, single point]	–
Cc1cc(C(=O)N2CCC3(CC2)CC(N(Cc2ccc(F)cc2)C2CC2)CCO3)n(C)n1 (stereo not given)	–	inconclusive: 56.2 µM [inhibitor, partial curve, poor fit]	–
O=C(NCc1cccc(C(F)(F)F)c1)C1CCCN(Cc2cccc(-c3cccs3)c2)C1 (stereo not given)	–	inconclusive: 20 µM [inhibitor, partial curve, poor fit]	–
CCC(=O)N1CCN(c2nc3c(s2)CC(C(=O)Nc2ccc(OC)c(F)c2)CC3)CC1 (stereo not given)	–	inconclusive: 35.5 µM [inhibitor, full curve]	–
O=C(Cn1cccc1-c1nc(-c2ccccc2)no1)Nc1cccc(Cl)c1	–	–	inactive: 2.46%
COCC1CN(C2CCC2)CC12CCN(Cc1scnc1C)CC2 (stereo not given)	–	inconclusive: 79.4 µM [inhibitor, partial curve]	–
COc1ccc(C(=O)N2CCC3(CC2)CCC(O)(CN(C)C)CC3)cn1	–	–	inactive: -3.84%
CN1CC(=O)N(C2CCNC2)Cc2c1ncnc2N1CCC(c2ccccc2)CC1 (stereo not given)	–	–	inactive: 1.79%
Cc1ccc(NC(=O)N2CCC(c3nc(CCOCC4CC4)no3)C2)cc1C (stereo not given)	–	inconclusive: 56.2 µM [inhibitor, partial curve, poor fit]	–
Oc1cccc(CN2CCCC23CCN(c2ccc(C(F)(F)F)cn2)CC3)c1	–	inconclusive: 56.2 µM [inhibitor, partial curve, poor fit]	–
O=C(CCCc1ccccc1)N1CCC2(CC1)CN(c1ccncn1)CC2CO (stereo not given)	–	inconclusive: 89.1 µM [inhibitor, single point]	–
O=C(C1CCCC1)N1Cc2ccccc2CC2(CCN(Cc3ccccn3)C2)C1 (stereo not given)	–	inconclusive: 79.4 µM [inhibitor, partial curve, poor fit]	–
CCCc1ccc(S(=O)(=O)N2CCCC(Cn3c(C)nc4cccnc43)C2)cc1 (stereo not given)	–	inconclusive: 50.1 µM [inhibitor, partial curve, poor fit]	–
CC(=O)c1cccc(NC(=O)O[C@H]2COCCN(c3nc4ccccc4o3)C2)c1	–	inconclusive: 112 µM [inhibitor, partial curve]	–
C[S+](=O)([O-])NCc1nnc2n1C(C(=O)NCc1ccc(Cl)cc1)CC2 (stereo not given)	–	–	inactive: -2.96%
Cc1cccc(CNC(=O)c2c(C)noc2-c2ccccc2Cl)c1	–	inconclusive: 100 µM [inhibitor, partial curve, poor fit]	–
Cc1nc(C2CC(O)C2)cc(N(C)Cc2ccc3c(c2)OCO3)n1 (stereo not given)	–	inconclusive: 17.8 µM [inhibitor, full curve, poor fit]	–
Cc1nnc(-c2cc(Nc3cccc(N(C)C)c3)ccn2)n1C1CCCCC1	–	active: 89.1 µM	–
C=CCOC(=O)C1=C(C)N=C2SC=C(CC(=O)N3CCCC3)N2C1c1cc(OC)cc(OC)c1 (stereo not given)	–	inconclusive: 56.2 µM [inhibitor, partial curve, poor fit]	–
